Test results reported in PubChem BioAssay AID485294 (National Center for Advancing Translational Sciences (NCATS), 2010).
Out of some 370,000 compounds screened, about 150 (0.041%) were called active. This list was built around the results that the source calls inconclusive (neither active nor inactive); the mix of calls is not that of the screen. The call rests on the fitted dose curve; in most records, active means well fitted inhibition curve with a large enough effect; inconclusive means small, poorly fitted or top-dose-only effect; inactive means flat fitted curve, though single readings scatter. Potencies of inconclusive entries are left out as doubtful fits.

target: Beta-lactamase (Escherichia coli (strain K12)) (UniProt P00811); test: qHTS Inhibitors of AmpC Beta-Lactamase (assay with detergent); settings: AmpC hydrolysis of nitrocefin, absorbance 480 nm, 0.01% Triton; activity change, negative = inhibition: at 114 µM (top of the series); further: nearly all actives have a fitted effect of over 25% in size;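 on activity change, negative = inhibition: 0% = no-compound wells and -100% = no-enzyme wells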
Summary of the method: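 20 mM phosphate pH 7.0 + 0.01% (detergent screen) or 0.0001% Triton X-100; 5.3 nM AmpC reagent; cpd preinc 15 min RT; nitrocefin (800 uM stock) to start; A480 q20 s × 4 min; Activity was normalised to no-enzyme and no-compound control wells.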
Potency means the concentration at half of the fitted maximal effect; tags describe the fitted curve by direction and shape.

Chain of UniProt P00811 (P00811 whole entry, looked up): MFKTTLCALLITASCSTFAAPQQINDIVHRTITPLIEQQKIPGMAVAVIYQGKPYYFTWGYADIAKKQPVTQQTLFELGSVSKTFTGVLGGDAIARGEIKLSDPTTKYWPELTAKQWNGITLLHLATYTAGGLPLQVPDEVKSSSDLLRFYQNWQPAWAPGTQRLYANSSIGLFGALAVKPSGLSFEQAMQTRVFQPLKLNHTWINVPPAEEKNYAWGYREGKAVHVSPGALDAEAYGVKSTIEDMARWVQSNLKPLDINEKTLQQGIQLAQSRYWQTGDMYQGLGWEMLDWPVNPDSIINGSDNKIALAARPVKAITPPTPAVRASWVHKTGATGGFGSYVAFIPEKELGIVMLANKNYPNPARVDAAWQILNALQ

SMILES	activity change, negative = inhibition	Potency
Cn1nnnc1SCCNCc1ccc(OCc2ccc(Cl)cc2)cc1	inactive: 5.46%	–
COc1ccc(C)cc1S(=O)(=O)Nc1ccccc1C	–	inconclusive [inhibitor, partial curve, poor fit]
CCc1ccc(NC(=O)C2CCCN2S(=O)(=O)c2ccc3c(c2)C(C)(C)C(=O)N3C)cc1 (stereo not given)	–	inconclusive [inhibitor, full curve]
Cc1cccc(CCNC(=O)CCc2nc(-c3ccccc3F)no2)c1	–	inconclusive [inhibitor, full curve, poor fit]
COc1ccc(Cc2nnc(SCC(=O)Nc3ncc(C)s3)o2)cc1	–	inconclusive [inhibitor, full curve, poor fit]
CCn1ncc(Cl)c1C(=O)Nc1cc([N+](=O)[O-])ccc1OC	–	inconclusive [inhibitor, partial curve, poor fit]
COc1ccc(O[C@H]2C=C[C@@H](c3ccccc3)O[C@@H]2CO/N=C(\C)CCN2CCc3nc(-c4ccccc4)c(-c4ccccc4)cc3C2)cc1	–	inconclusive [inhibitor, partial curve, poor fit]
CC(=O)c1ccc(Nc2c3c(c(C#N)c4nc5ccccc5n24)CCC3)cc1	–	inconclusive [inhibitor, full curve]
CCOC(=O)CNc1nc(-c2ccncc2)nc2ccccc12	–	inconclusive [inhibitor, full curve, poor fit]
COC(=O)C1=C(C)N(C)C(C)=C(C(=O)OC)C1c1ccc(C(=O)OC)cc1	–	inconclusive [inhibitor, partial curve]
COc1cc(/C=C/C(=O)NC(=O)c2ccccc2O)ccc1OC(C)=O	–	inconclusive [inhibitor, partial curve, poor fit]
Cc1ccccc1C(=O)Nc1ccc(N2CCCC2)cc1	inactive: -0.531%	–
CC(=O)c1cc(C#N)c(SCc2ccccc2)nc1C	–	inconclusive [inhibitor, single point]
COc1ccc(N2CCN(C(=O)COC(=O)c3cccc(S(=O)(=O)Nc4cccc(C)c4)c3)CC2)cc1	–	inconclusive [inhibitor, partial curve]
CCOC(=O)N1CCN(CCc2ccccc2)CC1	–	inconclusive [inhibitor, partial curve, poor fit]
CCCSc1nc2c(cnn2-c2ccc(C)cc2)c(=O)[nH]1	inactive: -11.2%	–
Cc1ccc(C(=O)CSc2nnc(C(C)C)n2C)cc1C	–	inconclusive [inhibitor, full curve, poor fit]
[O-][n+]1ccc(C2CC2)cc1	–	inconclusive [inhibitor, full curve, poor fit]
COc1ccc(CN2CCNC(=O)C2CC(=O)NC2CC(C)(C)CC(C)(C)C2)cc1OC (stereo not given)	–	inconclusive [inhibitor, single point]
COc1ccc(S(=O)(=O)NNC(=O)c2cc3ccccc3o2)cc1	–	inconclusive [inhibitor, full curve, poor fit]
C=CC[n+]1ccc(/C=C2\C=Cc3cc(C)ccc3N2CC)c2ccccc21	–	inconclusive [inhibitor, single point]
COc1cccc2cc(C(=O)N3CC(C)OC(C)C3)c(=O)oc12 (stereo not given)	–	inconclusive [inhibitor, full curve]

SMILES	activity change, negative = inhibition	Potency
CCOc1ccccc1NC(=O)C(c1ccccc1)N1Cc2ccccc2C1=O (stereo not given)	inactive: 18%	–
CCOC(=O)CSc1nnc2n(C3CCCCC3)c(=O)c3c4c(sc3n12)CCCC4	–	inconclusive [inhibitor, partial curve, poor fit]
CCOC(=O)C1CCN(C(=O)CCCNC(=O)Cn2cnc3sc(C)c(C)c3c2=O)CC1	–	inconclusive [inhibitor, full curve]
CCc1nnc(NC(=O)c2cc(Cl)ccn2)s1	inactive: -0.714%	–
COc1ccc(-[n+]2c(-c3ccccc3)cc(-c3ccc(C)cc3)cc2-c2ccccc2)cc1	–	inconclusive [inhibitor, full curve, poor fit]
COc1ccc(CN(C)Cc2ccccc2)c(OC)c1OC	–	inconclusive [inhibitor, full curve, poor fit]
O=C(Cc1sc(-c2ccccc2)nc1-c1ccccc1)Nc1ccc(Cl)cc1	–	inconclusive [inhibitor, single point]
O=C(Nc1ccc(N2CCCCC2)cc1)C1CCCN1S(=O)(=O)c1ccc(F)cc1 (stereo not given)	–	inconclusive [inhibitor, single point]
COc1ccccc1NC(=O)c1ccccc1NC(=O)c1ccccn1	–	inconclusive [inhibitor, partial curve, poor fit]
Cc1c(C2Nc3ccccc3C(=O)N2O)cnn1C (stereo not given)	inactive: 2.67%	–
COc1ccc(C(=O)Nc2ccc(N3CCOCC3)cc2)cc1OC	–	inconclusive [inhibitor, partial curve, poor fit]
CCOc1cc(C(=O)OCC(=O)Nc2c(C)cccc2C)ccc1OCC(=O)N1CCOCC1	–	inconclusive [inhibitor, full curve]
CCN(C(=O)c1cn(CC)c(=O)c2cc(OC)c(OC)cc12)c1ccc(C)c(C)c1	inactive: -7.41%	–
CC(OC(=O)Cn1cnc2c1c(=O)n(C)c(=O)n2C)C(=O)NCc1ccccc1 (stereo not given)	–	inconclusive [inhibitor, full curve]
CCOC(=O)Nc1ccc2c(c1)N(C(=O)CN1CCN(C)CC1)c1ccccc1S2	inactive: -4.81%	–
CC12CCC(=O)N1C(C(=O)OCC(=O)Nc1ccc(Cl)c(Cl)c1)CS2 (stereo not given)	–	inconclusive [inhibitor, full curve]
Cc1ccc(C(=O)NCC(=O)N(C)CC(=O)Nc2c(Cl)cccc2Cl)s1	–	inconclusive [inhibitor, partial curve, poor fit]
Cc1ccc(C)c(NC(=O)CN(C)C(C)C(=O)N2CC(C)CC(C)C2)c1 (stereo not given)	inactive: -14.7%	–
Cc1cc(F)ccc1S(=O)(=O)Nc1ncnc2scc(-c3ccc(F)cc3)c12	–	inconclusive [inhibitor, full curve]
C=CCNC(=S)NNC(=O)c1csc(C)c1C	–	inconclusive [inhibitor, single point]
C=CCNc1nc(Nc2ccccc2F)nc(OCC)n1	inactive: 5.24%	–
O=C(c1ccccc1[N+](=O)[O-])N1CCN(Cc2ccc3c(c2)OCO3)CC1	–	inconclusive [inhibitor, full curve]

SMILES	activity change, negative = inhibition	Potency
Cc1cc(C(=O)NCc2ccccc2)c(=O)[nH]c1C	–	inconclusive [inhibitor, partial curve, poor fit]
CCC(C)NC(=O)c1c(N)n(Cc2ccc3c(c2)OCO3)c2nc3ccccc3nc12 (stereo not given)	–	inconclusive [inhibitor, partial curve, poor fit]
Cc1ccc2cccc(Oc3ncnc4scc(-c5ccc(Cl)cc5)c34)c2n1	–	inconclusive [inhibitor, single point]
Cc1ccc(C)c(NC(=O)CCc2c(C)nn(-c3ccc(N4CCCCC4)nn3)c2C)c1	inactive: 9.74%	–
COc1cccc2cc(C(=O)NCC3CCCO3)c(=O)oc12 (stereo not given)	–	inconclusive [inhibitor, single point]
CCCCS(=O)(=O)c1nc(-c2ccc(Br)cc2)cc(-c2ccccc2)c1C#N	inactive: 11.9%	–
O=C1/C(=C\Nc2ccc(OC(F)(F)F)cc2)CCN1c1ncccn1	inactive: -2.15%	–
COc1ccccc1CNC(=O)CN1C(=O)C(C)N(c2ccc(C)cc2)C1=O (stereo not given)	–	inconclusive [inhibitor, single point]
O=C(CO)C(O)C(O)C(O)CO (stereo not given)	–	inconclusive [inhibitor, full curve, poor fit]
Cc1cccc(OCCOCCN2CCNCC2)c1C	–	inconclusive [inhibitor, partial curve]
CCN(C(=O)COC(=O)c1ccccc1Nc1cccc(C)c1C)C1CCS(=O)(=O)C1 (stereo not given)	–	inconclusive [inhibitor, full curve]
CC(C)(C)c1ccc(OC(=O)c2ccc(-n3cncn3)nc2)cc1	–	inconclusive [inhibitor, full curve, poor fit]
COc1ccc(CNCCC(c2ccc(OC(C)C)cc2)c2ccccc2OC)cc1OC (stereo not given)	inactive: -2.61%	–
CN(C)C(Cc1ccc(C#N)cc1)C(=O)c1ccccc1 (stereo not given)	inactive: -8.59%	–
COC(=O)c1c(NC(=O)CC2Sc3ccc(C(F)(F)F)cc3NC2=O)sc(C)c1C (stereo not given)	–	inconclusive [inhibitor, full curve, poor fit]
Cc1ccccc1NC(=S)N=Nc1c(O)n(C)c2ccc(S(=O)(=O)N3CCOCC3)cc12	–	inconclusive [inhibitor, partial curve, poor fit]
CCOc1ccc(NC(=S)NC(=O)/C=C/c2ccc(C)cc2)c([N+](=O)[O-])c1	inactive: -2.12%	–
COC(=O)C1=CN(Cc2ccc(C)cc2)C=C(C(=O)OC)C1c1cc(OC)c(OC)c(OC)c1	–	inconclusive [inhibitor, full curve, poor fit]
Cc1ccccc1NC(=O)CSc1nnc(-c2cccs2)o1	inactive: -4.97%	–
CC(=O)N1CCc2cc(C(=O)CN3CCN(c4cccc(Cl)c4)CC3)ccc21	–	inconclusive [inhibitor, full curve, poor fit]
O=C(O)c1cccc(S(=O)(=O)Nc2ccccc2Cc2ccccc2)c1	–	inconclusive [inhibitor, full curve, poor fit]
